Laboratory results published in US20250340636A1, “ANTIBODIES TARGETING L1CAM AND USES THEREOF” (MEMORIAL SLOAN-KETTERING CANCER CENTER, priority 2023, published 2025).

T1: human CHL-1 (Homo sapiens, UniProt O00533)
T1 construct: human CHL-1 (residues 25-1096 with a C-terminal 10×His tag, R&D Systems); purchased R&D Systems
T1 sequence (O00533 25-1096 isoform O00533-2): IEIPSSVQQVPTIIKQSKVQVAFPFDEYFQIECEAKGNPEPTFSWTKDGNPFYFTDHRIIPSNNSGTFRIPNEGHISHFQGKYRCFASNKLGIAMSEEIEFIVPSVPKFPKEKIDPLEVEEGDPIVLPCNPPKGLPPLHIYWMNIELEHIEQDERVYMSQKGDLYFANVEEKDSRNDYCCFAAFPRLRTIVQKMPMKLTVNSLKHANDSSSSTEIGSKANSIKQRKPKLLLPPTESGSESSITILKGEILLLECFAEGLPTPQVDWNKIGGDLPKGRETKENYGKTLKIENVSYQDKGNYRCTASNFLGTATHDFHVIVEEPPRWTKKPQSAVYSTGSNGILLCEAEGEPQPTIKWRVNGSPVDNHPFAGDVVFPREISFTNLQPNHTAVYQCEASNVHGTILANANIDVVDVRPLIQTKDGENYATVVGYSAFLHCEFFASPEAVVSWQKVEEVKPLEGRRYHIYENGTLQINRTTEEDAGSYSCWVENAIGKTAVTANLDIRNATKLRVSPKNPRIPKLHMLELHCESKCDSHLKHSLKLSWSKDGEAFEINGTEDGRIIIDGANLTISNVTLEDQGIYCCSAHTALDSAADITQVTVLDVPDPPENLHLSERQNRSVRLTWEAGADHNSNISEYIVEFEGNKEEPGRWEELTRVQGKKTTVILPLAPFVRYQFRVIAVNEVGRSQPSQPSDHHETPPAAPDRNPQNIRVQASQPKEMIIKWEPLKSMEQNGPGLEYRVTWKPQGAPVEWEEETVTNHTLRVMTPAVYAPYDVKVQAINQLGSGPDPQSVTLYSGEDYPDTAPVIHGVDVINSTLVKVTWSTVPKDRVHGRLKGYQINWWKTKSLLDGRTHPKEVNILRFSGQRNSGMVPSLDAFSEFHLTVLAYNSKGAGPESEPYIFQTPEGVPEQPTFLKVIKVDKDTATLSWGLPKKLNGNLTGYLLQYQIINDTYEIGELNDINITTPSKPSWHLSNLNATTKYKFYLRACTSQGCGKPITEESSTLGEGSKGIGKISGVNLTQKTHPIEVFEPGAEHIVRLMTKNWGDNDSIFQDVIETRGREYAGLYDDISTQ


Columns and labels:
[1] = format: physicochemical; details: for increase in methionine oxidation: H2O2 treated sample, mass spectrometry; for SEC-HPLC monomer: criteria >95% monomer; for CE-SDS purity: denaturing (reduction and non-reducing) conditions, criteria >90% purity; for HIC hydrophobicity: establish baseline
Procedure: Biophysical Characterization. Biophysical characterization of the CHO stable pool-derived material was performed before initiation of the solubility and stress studies to establish baseline concentrations, visual appearance, % monomer (SE-HPLC), thermal unfolding (DSF), hydrodynamic radius (DLS), polydispersity (DLS), intact mass (LC-MS) and post-translational modifications within the CDRs (LC-MS).
Forced Stress Studies. […] The starting material for all tests was formulated in 1×PBS at 20 mg/ml.
Freeze/Thaw of TDI-Y-004 and TDI-Y-005. Samples were evaluated after 5 slow freeze/thaw cycles.
Oxidative Stress of TDI-Y-004 and TDI-Y-005. Samples were exposed to 0.1% (w/v) H202 and tert-Butyl Hydroperoxide (tBHP) for 24 hours, visually inspected and then buffer exchanged back to 1×PBS. […] Given that these residues are known to be surface-exposed, the results were expected.
pH Stress of TDI-Y-004 and TDI-Y-005. Samples were buffer exchanged to 50 mM acetate buffer pH 3.5 or 50 mM Tris-HCl buffer pH 9.0, and incubated overnight at room temperature. Samples were then buffer exchanged to 1×PBS solution.
Thermal Stress of TDI-Y-004 and TDI-Y-005. Antibody formulated in 1×PBS or 20 mM His, 150 mM NaCl, pH6.0 at 20 mg/ml was subjected to extended thermal stress. Samples were incubated at 37° C. for 1 or 2 weeks.

human CHL-1 = biological target: T1, human CHL-1; assay: Selectivity ELISA, CHL-1; format: binding; details: for binding to CHL-1: 1 μM antibody; for Binding to human CHL-1 (L1CAM2): at 1 μM
Excerpt: Selectivity. […] These proteins are other members of the L1 family of cell adhesion proteins and have between 49% and 55% sequence similarity with L1CAM in the extracellular portion. […] Positive control antibodies were included for each homolog. […] Epitope. The extracellular portion of L1CAM contains six immunoglobulin-like (Ig) domains and five fibronectin type III (FN) domains. To narrow down the binding region of the development candidate mAbs, truncated versions of human L1CAM protein (Ig domain, residues 21-605; FN domain, residues 606-1116; each with a C-terminal 6×His tag) were recombinantly produced, followed by a BLI experiment to test binding at 50 and 100 nM. […] 6×His tag is set forth in SEQ ID NO: 316.

[2] = system: MDA-MB-231-LM2 cells, lung metastases; assay: MDA-MB-231-LM2 lung metastasis; format: in vivo; details: MDA-MB-231 tail vein injection model, mouse
Excerpt: MDA-MB-231-LM2 breast cancer cells were introduced via tail vein injection into athymic mice to generate lung metastasis. […] FIGS. 27A and 27B show tumor growth monitored on a weekly basis.
MDA-MB-231-LM2 Lung Metastasis. To assess the efficacy of the L1CAM ADCs in the context of an intact tumor microenvironment, 5×10^4 MDA-MB-231-LM2 cells were introduced via tail vein injection into athymic mice to generate orthotopic lung metastases.

Row | Molecule | Forced degradation: H2O2 and tBMP Oxidation [1] | Forced degradation: Low and High pH stress [1] | Forced degradation: Thermal Stress [1] | Thermal stability comparison [1] | stability, pH stress [1] | increase in methionine oxidation [1] [%] | SEC-HPLC monomer [1] | CE-SDS purity [1] | HIC hydrophobicity [1] | binding to CHL-1 (human CHL-1) | Binding to human CHL-1 (L1CAM2) (human CHL-1) | Tumor control ([2]; ADC with cleavable linker) [% tumor control] | Survival ([2]; ADC with non-cleavable linker) [% survival] | Tumor control ([2]; ADC with non-cleavable linker) | Tumor recurrence, days after last dose ([2]; ADC with non-cleavable linker) | Tumor regression ([2]; ADC with non-cleavable linker)
1 | TDI-Y-005 (antibody) heavy: EVQMVESGGGLVQPGGSLRLSCAAPGFIFSSYNMNWVRQAPGKGLEWVSYISSSSSTTYYADSVKGRFTISRDNAKNSLYLQMNSLRDEDTAVYYCASLYSGYDYYYYYGMDVWGQGTTVTVSS[human IgG1 constant region not printed] light: DIVMTQTPLSSPVSLGQPASISCRSSQSLVHSDGNTYLSWLQQRPGQPPRVLIYKISKRFSGVPDRFSGSGAGTDFTLKISRVEAEDVGVYYCMQATQFPFTFGPGTKVDIKRTVAAPSVFIFPPSDEQLKSGTASVVCLLNNFYPREAKVQWKVDNALQSGNSQESVTEQDSKDSTYSLSSTLTLSKADYEKHKVYACEVTHQGLSSPVTKSFNRGEC | Slight acidic shift was observed as a result of H2O2. Peptide mapping and BLI | The molecule was stable under deferent pH conditions | cIEF acidic shift was observed | thermally more stable than TDI-Y-005 | No significant changes | 96 | SEC analysis indicated that the mAb was >97% | The molecule had high purity >98% under denaturing | HIC analysis indicated that the mAb was hydrophobic | No binding | No binding at 1 μM | >85 | 100 | >99% tumor control, | No tumor recurrence up to 48 days | complete regression
2 | TDI-Y-004 (antibody) heavy: QVQLVQSGAEVKKPGSSVKVSCKASGYTFTNYYIHWVRQAPGQGLEWMGKIGPGSGSPYYQGMFKDRVTITADESTSTAYMELSSLRSEDTAVYYCARWLLPFDYWGQGTLVTVSS[human IgG1 constant region not printed] light: EIVLTQSPGTLSLSPGERATLSCRASSSVNYMHWYQQKPGQAPRLLIYATSILASGIPDRFSGSGSGTDYTLTISRLEPEDFAVYYCQQFSSDPLTFGGGTKVEIKRTVAAPSVFIFPPSDEQLKSGTASVVCLLNNFYPREAKVQWKVDNALQSGNSQESVTEQDSKDSTYSLSSTLTLSKADYEKHKVYACEVTHQGLSSPVTKSFNRGEC | Slight acidic shift was observed as a result of H2O2. Peptide mapping and BLI | The molecule was stable under deferent pH conditions | cIEF acidic shift was observed as a result of thermal stress. Peptide mapping and |  | No significant changes | 98 | SEC analysis indicated that the mAb was > 98% | The molecule had high purity > 98% under denaturing | hydrophobic | No binding | No binding at 1 μM | >85 | 100 | > 99% | No tumor recurrence up to 48 | complete
